Over roughly 110,000 compounds, “z-score” has its median near -0.1; the highest 2% begin near 2. The list shows a part of the results. Activity calls are given as the source filed them.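 How the source made its calls: active means z-score in the third read window above 3 or below -3; inactive means the rest.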
target: Metabotropic glutamate receptor 8 (Rattus norvegicus) (UniProt P70579); test: mGluR8 Gi/Go-coupled signaling modulation – cell-based, rat, thallium flux, HTS, primary screen (AID 488969); details: HEK293 rat mGluR8, GIRK (G protein-gated inwardly rectifying potassium channel) thallium flux, FluoZin2; at 10 µM; stronger effect = higher value; submaximal glutamate (EC20) added with thallium
Sequence of UniProt P70579 (P70579 whole entry, looked up): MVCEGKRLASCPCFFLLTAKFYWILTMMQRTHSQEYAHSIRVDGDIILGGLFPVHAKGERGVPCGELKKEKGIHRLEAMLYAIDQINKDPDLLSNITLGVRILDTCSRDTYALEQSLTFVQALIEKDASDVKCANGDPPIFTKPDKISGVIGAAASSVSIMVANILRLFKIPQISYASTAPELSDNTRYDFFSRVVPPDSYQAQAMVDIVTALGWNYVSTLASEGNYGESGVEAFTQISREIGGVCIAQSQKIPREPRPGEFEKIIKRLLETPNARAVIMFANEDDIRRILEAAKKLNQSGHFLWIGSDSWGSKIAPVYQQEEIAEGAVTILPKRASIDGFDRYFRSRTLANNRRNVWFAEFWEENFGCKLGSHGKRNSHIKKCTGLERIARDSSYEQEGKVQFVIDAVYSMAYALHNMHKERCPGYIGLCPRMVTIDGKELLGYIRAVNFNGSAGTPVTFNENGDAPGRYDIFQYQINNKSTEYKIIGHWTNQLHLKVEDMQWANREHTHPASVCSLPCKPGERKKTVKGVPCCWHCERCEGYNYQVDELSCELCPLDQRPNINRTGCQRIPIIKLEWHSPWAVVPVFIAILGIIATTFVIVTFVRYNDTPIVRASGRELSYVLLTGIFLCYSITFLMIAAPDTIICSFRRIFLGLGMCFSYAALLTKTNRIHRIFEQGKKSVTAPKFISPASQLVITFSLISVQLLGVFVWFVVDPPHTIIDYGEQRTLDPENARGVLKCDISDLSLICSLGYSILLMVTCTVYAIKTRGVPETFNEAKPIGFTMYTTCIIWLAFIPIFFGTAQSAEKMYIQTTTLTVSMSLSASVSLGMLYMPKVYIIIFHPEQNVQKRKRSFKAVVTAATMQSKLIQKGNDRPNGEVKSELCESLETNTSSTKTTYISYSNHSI

`CC(NC(=O)c1ccc(N(C)C)cc1)C(c1cccs1)N1CCN(C)CC1` (stereo unspecified) was tested. Which z-score did it give?
Its z-score is 0.264.

How did the z-score turn out when `COc1ccc(/C=C/c2nc(C)c(-c3ccccc3)c(=O)[nH]2)cc1OC` was run?
Its z-score is -0.0861.

Which z-score does the source give for `CC(C)Oc1ccc(CNC(=S)N/N=C/c2ccc([N+](=O)[O-])cc2)cc1` here?
Its z-score is -0.0872.

Which z-score does the source give for `COC(=O)c1ccc(N(C(=O)CNC(=O)c2ccco2)C(C(=O)NC2CCCC2)c2ccco2)cc1` (stereo unspecified) here?
The z-score was 0.0193.

For `Cc1csc(NC(=O)CSc2nc(C)cs2)n1`, which z-score is on record?
Its z-score is 0.0532.

`CC(=O)NS(=O)(=O)c1ccc(NC(=O)C(Sc2ccccc2)c2ccccc2)cc1` (stereo unspecified) was tested. Which z-score did it give?
The z-score was -0.151.

Which z-score does the source give for `C=CCNC(=O)CC(=O)N/N=C/c1ccccc1F` here?
Its z-score is -0.178.

Which z-score does the source give for `CCCOc1ccc(-c2nn(-c3ccccc3)cc2/C=C2\SC(N)=NC2=O)cc1` here?
Its z-score is 0.0819.

With `CCCN(CCC)C(=O)Cn1c(=O)c2ccccc2n2c(=S)sc(-c3ccccc3C)c12` as the compound, how does the z-score read?
The z-score was -0.0822.

Which z-score does the source give for `CCN(CC)S(=O)(=O)c1ccc(-c2nnc(SCC(=O)Nc3ccc(OC)cc3)o2)cc1` here?
Its z-score is 0.249.

How did the z-score turn out when `Cc1ccc(-c2nc(C3CCCN(S(=O)(=O)c4ccc(C)cc4)C3)no2)cc1` (stereo unspecified) was run?
The z-score was 0.0801.

With `N#CC1=C(N)Oc2ccc3ccc(O)cc3c2C1c1cccnc1` (stereo unspecified) as the compound, how does the z-score read?
The z-score was -0.181.

`Cc1cccc(NC(=O)C2CC(=O)N/C(=N/N=C/c3ccco3)S2)c1` (stereo unspecified) was tested. Which z-score did it give?
The z-score was 0.232.

With `COc1ccc(C)cc1NC(=O)CCC(=O)Nc1nnc(C(F)(F)F)s1` as the compound, how does the z-score read?
Its z-score is -0.325.

Which z-score does the source give for `CCC(C)(C)NC(=O)/C=C/c1ccc(OC)c(S(=O)(=O)N2CCOCC2)c1` here?
The z-score was -0.0291.

Which z-score does the source give for `COc1ccccc1-n1c(C)nc(=O)c(-c2ccccc2)c1C` here?
Its z-score is -0.00621.

`Cc1ccc(C(=O)Nc2ccc(N3CCN(S(C)(=O)=O)CC3)cc2)cc1` was tested. Which z-score did it give?
The z-score was 0.0119.

Which z-score does the source give for `CCCC(=O)Nc1ccc(-c2nc3cc(C)ccc3o2)cc1` here?
Its z-score is -0.316.

How did the z-score turn out when `Cc1ccsc1/C=N/n1c(-c2ccco2)n[nH]c1=S` was run?
Its z-score is 0.377.

With `CCOC(=O)N/N=C/c1cn(Cc2ccccc2Cl)c2ccccc12` as the compound, how does the z-score read?
Its z-score is -0.0664.

With `COc1ccc(N2C(=O)CSC2c2ccc3c(c2)OCO3)cc1` (stereo unspecified) as the compound, how does the z-score read?
Its z-score is -0.145.

For `O=C(CC1COc2ccccc2O1)NCc1ccccc1` (stereo unspecified), which z-score is on record?
The z-score was -1.07.

How did the z-score turn out when `COc1cc(OC)c(C(=O)OC(C)C(=O)Nc2cccc(C(F)(F)F)c2)cc1OC` (stereo unspecified) was run?
Its z-score is -0.492.

With `O=C(COC(=O)/C=C/c1cccc(Cl)c1)NCCc1ccc(Cl)cc1Cl` as the compound, how does the z-score read?
Its z-score is 0.84.

For `CCOC(=O)c1cc(-c2ccccc2)n(CC(=O)Nc2cc(OC)cc(OC)c2)c1C`, which z-score is on record?
Its z-score is 0.0746.

How did the z-score turn out when `COc1ccc(CC(=O)NC(CC(=O)O)c2ccc(OC)cc2)cc1` (stereo unspecified) was run?
The z-score was -1.02.

For `COc1ccc(N2CCN(C(=O)Cc3ccc(-n4c(=O)[nH]c5ccccc5c4=O)cc3)CC2)cc1`, which z-score is on record?
The z-score was 0.819.

How did the z-score turn out when `CCN(CC)c1ccc(NC(=O)c2cccc(C)c2OC)c(C)c1` was run?
The z-score was -1.57.

With `C=CCCC(=O)Nc1ccc(COC(=O)N2CCOCC2)cc1` as the compound, how does the z-score read?
Its z-score is -0.0596.

For `COc1ccc(C2CCCN2C(=O)Nc2ccc(Cl)cc2)cc1OC` (stereo unspecified), which z-score is on record?
The z-score was -1.46.

How did the z-score turn out when `Cc1nn(Cc2c(Cl)cccc2Cl)c(C)c1N` was run?
The z-score was -0.217.

With `Cc1ccc(-n2ncc(C#N)c2/N=C/N(C)C)cc1` as the compound, how does the z-score read?
Its z-score is 0.104.

For `CCc1nc(NCc2ccc3c(c2)OCO3)c2oc3ccccc3c2n1`, which z-score is on record?
Its z-score is -0.977.

How did the z-score turn out when `CCN(CC)S(=O)(=O)c1ccc(C)c(NC(=O)CN(C)C)c1` was run?
The z-score was 0.239.

How did the z-score turn out when `COC(=O)CCCCCNc1ccc(C(=O)OC)cc1N` was run?
Its z-score is -0.131.

How did the z-score turn out when `O=C(COC(=O)c1ccccc1Cl)NC(=O)NCc1ccccc1` was run?
Its z-score is -0.627.

How did the z-score turn out when `CC(=O)Nc1cc(-c2ccc(Cl)cc2)nn1-c1ccccc1` was run?
The z-score was 0.262.

Which z-score does the source give for `COc1ccc(C(=O)Nc2ccccc2-c2nnn(CC(=O)Nc3ccc4c(c3)OCCO4)n2)cc1` here?
Its z-score is -0.257.

Which z-score does the source give for `O=C(Nc1ccccc1)OCc1cc(-c2ccccc2Cl)on1` here?
Its z-score is -0.0611.

With `Fc1cccc(-c2cc3nc(-c4ccccc4)cc(N4CCC5(CC4)OCCO5)n3n2)c1` as the compound, how does the z-score read?
Its z-score is -0.324.

`CCOC(=O)CCSc1nc(-c2ccc3c(c2)OCO3)cc(C(F)(F)F)c1C#N` was tested. Which z-score did it give?
Its z-score is -0.326.

Which z-score does the source give for `COC(=O)c1[nH]c2ccc(F)cc2c1NC(=O)CCN1CC(C)OC(C)C1` (stereo unspecified) here?
The z-score was -0.0436.

With `O=C(Cc1ncc(C(F)(F)F)cc1Cl)N1CCN(c2ccccn2)CC1` as the compound, how does the z-score read?
Its z-score is 0.224.

With `N#Cc1c(C(F)(F)F)cc(-c2ccccc2Cl)[nH]c1=O` as the compound, how does the z-score read?
The z-score was -1.14.

How did the z-score turn out when `Cc1ccc(C)c(-n2cc(-c3ccc(Cl)cc3)nc2SCC(=O)NC2CCS(=O)(=O)C2)c1` (stereo unspecified) was run?
Its z-score is -0.524.

With `CCn1nnnc1SCC(=O)N1CCc2ccccc21` as the compound, how does the z-score read?
The z-score was 0.00286.

For `Cc1cc(NC(=O)CN2CCCCC2C)no1` (stereo unspecified), which z-score is on record?
The z-score was -0.358.

For `Cc1ccc2cc(CN(CC3CCCO3)S(=O)(=O)c3ccccc3)c3nnnn3c2c1` (stereo unspecified), which z-score is on record?
The z-score was -0.322.

With `CN1CCN(CC(=O)Nc2sc3c(c2C#N)CCC(C(C)(C)C)C3)CC1` (stereo unspecified) as the compound, how does the z-score read?
Its z-score is 1.67.

Which z-score does the source give for `Cc1ccccc1OCC(=O)N1CCCc2ccccc21` here?
Its z-score is -0.249.

How did the z-score turn out when `CN(C)CCNC(=O)c1coc(=O)c(Br)c1` was run?
The z-score was 0.847.

With `CC1CCN(C(=O)Cn2cc3c(n2)CCCC3)CC1` as the compound, how does the z-score read?
Its z-score is -0.224.

For `CC(C)(C)OC(=O)NNC1CC(=O)N(c2ccccc2F)C1=O` (stereo unspecified), which z-score is on record?
Its z-score is 0.542.

With `O=S(=O)(NCC(c1cccnc1)N1CCN(c2ccccc2)CC1)c1cccs1` (stereo unspecified) as the compound, how does the z-score read?
The z-score was -0.0906.

For `COc1ccc(-c2cc(O)cc(O)c2)cc1`, which z-score is on record?
The z-score was -0.182.

Which z-score does the source give for `CCn1c(/C=C2\C(=O)N(C)c3ccccc32)nc2ccccc2c1=O` here?
Its z-score is 0.0291.

How did the z-score turn out when `CC(=O)Nc1sc(/C(C#N)=C/c2ccc(Cl)c(Cl)c2)nc1-c1ccc(C)cc1` was run?
Its z-score is -0.0793.

`CNC(=O)/C=C/c1cccc(C(F)(F)F)c1` was tested. Which z-score did it give?
Its z-score is -0.215.

`O=C(Nc1cc(C(F)(F)F)ccc1N1CCOCC1)c1ccccc1` was tested. Which z-score did it give?
Its z-score is -0.26.

How did the z-score turn out when `CCCc1cc(C(=O)Nc2nccs2)cs1` was run?
The z-score was -0.0307.

With `CS(=O)(=O)NCc1csc(-c2ccccc2)n1` as the compound, how does the z-score read?
The z-score was 2.26.

How did the z-score turn out when `CSc1cccc(-n2c(C)cc(C(N)=O)c2C)c1` was run?
The z-score was 1.15.

`O=Cc1cn(-c2ccc(F)cc2)c2ccccc12` was tested. Which z-score did it give?
Its z-score is -0.188.

With `CCCCC(C(=O)NCCC(C)C)N(CCCN1CCOCC1)C(=O)c1snc(C(N)=O)c1N` (stereo unspecified) as the compound, how does the z-score read?
The z-score was -0.0892.

Which z-score does the source give for `CCCSc1nc(O)c(C2OC(=O)c3c2ccc(OC)c3OC)c(=O)n1-c1ccccc1` (stereo unspecified) here?
The z-score was -0.467.

With `COc1ccc(NC(=O)C(=O)NCc2ccncc2)c(OC)c1` as the compound, how does the z-score read?
The z-score was -0.236.

`COc1cc(CNC2CCCCCC2)cc(OC)c1OC` was tested. Which z-score did it give?
Its z-score is -0.324.

For `c1ccc(Cc2nnc(-c3ccccc3)o2)cc1`, which z-score is on record?
Its z-score is active: 10.4.

For `Clc1ccc(-c2nc(N3CCCCC3)nc3ccccc23)cc1`, which z-score is on record?
Its z-score is 0.231.

Which z-score does the source give for `CC(CNS(=O)(=O)c1ccccc1)(c1ccccc1)N1CCOCC1` (stereo unspecified) here?
Its z-score is -0.324.

With `CC1C(c2ccccc2)N(C)C(c2ccccc2)CC1(O)c1ccccc1` (stereo unspecified) as the compound, how does the z-score read?
The z-score was 1.27.
